Results published in the supplement of paper PMC12217912.
The other results are listed elsewhere or left out. The full chains were built here from the parent and the listed change. Inactive controls read about 0.05.

B1: TEV protease; numbered along this chain (parent)
chain: MGESLFKGPRDYNPISSSICHLTNESDGHTTSLYGIGFGPFIITNKHLFRRNNGTLVVQSLHGVFKVKDTTTLQQHLVDGRDMIIIRMPKDFPPFPQKLKFREPQREERICLVTTNFQTKSMSSMVSDTSCTFPSGDGIFWKHWIQTKDGQCGSPLVSTRDGFIVGIHSASNFTNTNNYFTSVPKNFMELLTNQEAQQWVSGWRLNADSVLWGGHKVFMVKPEEPFQPVKEATQL

Variants of: B1
Experiment: raw area under fraction-flipped curve 0-4 h after induction (AUC4h, not background-subtracted), DNA-recorder readout of cleavage of the substrate (dimensionless); higher = more cleavage of the substrate by the protease variant
Details: temperature: 34 °C; time window: 0-4 h after rhamnose induction
Experimental: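 In vivo DNA recorder in E. coli TOP10(DE3) ΔrhaA at 34 °C. Each TEVp single-site mutant (parent TEVp 0) is paired with a single-site variant of the 7-mer TEVs (canonical ENLYFQ|S). The substrate sits between flexible linkers in a Bxb1-sfGFP-TEVs-SsrA fusion, so cleavage stabilises Bxb1 and speeds flipping of a recombination array, read by NGS. The value is the raw area under the fraction-flipped curve over 0-4 h after rhamnose induction (AUC4h), with ≥20 reads per time point. It is not background-subtracted; inactive controls average about 0.047.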
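Further: Bxb1 expression induced with 0.2% (w/v) L-rhamnose at OD600 near 0.5, cultures sampled hourly, flipped fraction per protease–substrate barcode pair counted by paired-end Illumina sequencing.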

MGESLFKGPRDYNPISSSICHLTNESDGHTTSLYGIGFGPFIITNKHLFRRNNGTLVVQSLHGVFKVKDTTTLDQHLVDGRDMIIIRMPKDFPPFPQKLKFREPQREERICLVTTNFQTKSMSSMVSDTSCTFPSGDGIFWKHWIQTKDGQCGSPLVSTRDGFIVGIHSASNFTNTNNYFTSVPKNFMELLTNQEAQQWVSGWRLNADSVLWGGHKVFMVKPEEPFQPVKEATQL [Q74D]
area with substrate ENLYCQS: 0.0813
area with substrate ENLYDQS: 0.0536
area with substrate ENLYEQS: 0.0649
area with substrate ENLYGQS: 0.0592
area with substrate ENLYHQS: 0.0738
area with substrate ENLYIQS: 0.155
area with substrate ENLYKQS: 0.0545
area with substrate ENLYMQS: 0.084
area with substrate ENLYPQS: 0.0755
area with substrate ENLYQQS: 0.0736
area with substrate ENLYRQS: 0.0579
area with substrate ENLYSQS: 0.0736
area with substrate ENLYVQS: 0.117
area with substrate ENLYWQS: 0.0852

MGESLFKGPRDYNPISSSICHLTNESDGHTTSLYGIGFGPFIITNKHLFRRNNGTLVVQSLHGVFKVKDTTTLQQHLADGRDMIIIRMPKDFPPFPQKLKFREPQREERICLVTTNFQTKSMSSMVSDTSCTFPSGDGIFWKHWIQTKDGQCGSPLVSTRDGFIVGIHSASNFTNTNNYFTSVPKNFMELLTNQEAQQWVSGWRLNADSVLWGGHKVFMVKPEEPFQPVKEATQL [V78A]
area with substrate ENLYCQS: 0.0645
area with substrate ENLYDQS: 0.0469
area with substrate ENLYEQS: 0.0575
area with substrate ENLYGQS: 0.0562
area with substrate ENLYHQS: 0.0624
area with substrate ENLYIQS: 0.0874
area with substrate ENLYKQS: 0.0574
area with substrate ENLYLQS: 0.0584
area with substrate ENLYMQS: 0.0691
area with substrate ENLYNQS: 0.0619
area with substrate ENLYPQS: 0.0591
area with substrate ENLYQQS: 0.0583
area with substrate ENLYRQS: 0.0634
area with substrate ENLYSQS: 0.0509
area with substrate ENLYTQS: 0.0687
area with substrate ENLYVQS: 0.0746
area with substrate ENLYWQS: 0.0434
area with substrate ENLYYQS: 0.0609

MGESLFKGPRDYNPISSSICHLTNESDGHTTSLYGIGFGPFIITNKHLFRRNNGTLVVQSLHGVFKVKDTTTLQQHLVDGGDMIIIRMPKDFPPFPQKLKFREPQREERICLVTTNFQTKSMSSMVSDTSCTFPSGDGIFWKHWIQTKDGQCGSPLVSTRDGFIVGIHSASNFTNTNNYFTSVPKNFMELLTNQEAQQWVSGWRLNADSVLWGGHKVFMVKPEEPFQPVKEATQL [R81G]
area with substrate ENLYCQS: 0.0774
area with substrate ENLYDQS: 0.0571
area with substrate ENLYEQS: 0.0569
area with substrate ENLYGQS: 0.0717
area with substrate ENLYHQS: 0.0585
area with substrate ENLYIQS: 0.0983
area with substrate ENLYMQS: 0.0589
area with substrate ENLYNQS: 0.0652
area with substrate ENLYQQS: 0.07
area with substrate ENLYRQS: 0.0529
area with substrate ENLYTQS: 0.0648
area with substrate ENLYVQS: 0.0871
area with substrate ENLYWQS: 0.0608
area with substrate ENLYYQS: 0.0595

MGESLFKGPRDYNPISSSICHLTNESDGHTTSLYGIGFGPFIITNKHLFRRNNGTLVVQSLHGVFKVKDTTTLQQHLVDGRDMIKIRMPKDFPPFPQKLKFREPQREERICLVTTNFQTKSMSSMVSDTSCTFPSGDGIFWKHWIQTKDGQCGSPLVSTRDGFIVGIHSASNFTNTNNYFTSVPKNFMELLTNQEAQQWVSGWRLNADSVLWGGHKVFMVKPEEPFQPVKEATQL [I85K]
area with substrate ENLYCQS: 0.0592
area with substrate ENLYDQS: 0.0552
area with substrate ENLYEQS: 0.0547
area with substrate ENLYGQS: 0.0452
area with substrate ENLYHQS: 0.0636
area with substrate ENLYIQS: 0.0318
area with substrate ENLYKQS: 0.0372
area with substrate ENLYMQS: 0.0579
area with substrate ENLYNQS: 0.0542
area with substrate ENLYPQS: 0.0623
area with substrate ENLYQQS: 0.0583
area with substrate ENLYRQS: 0.0574

MGESLFKGPRDYNPISSSICHLTNESDGHTTSLYGIGFGPFIITNKHLFRRNNGTLVVQSLHGVFKVKDTTTLQQHLVDGRDMIIIRMWKDFPPFPQKLKFREPQREERICLVTTNFQTKSMSSMVSDTSCTFPSGDGIFWKHWIQTKDGQCGSPLVSTRDGFIVGIHSASNFTNTNNYFTSVPKNFMELLTNQEAQQWVSGWRLNADSVLWGGHKVFMVKPEEPFQPVKEATQL [P89W]
area with substrate ENLYCQS: 0.0574
area with substrate ENLYDQS: 0.0446
area with substrate ENLYEQS: 0.0557
area with substrate ENLYGQS: 0.047
area with substrate ENLYHQS: 0.0447
area with substrate ENLYIQS: 0.0709
area with substrate ENLYKQS: 0.0511
area with substrate ENLYNQS: 0.057
area with substrate ENLYPQS: 0.0529
area with substrate ENLYQQS: 0.0446
area with substrate ENLYRQS: 0.0475
area with substrate ENLYSQS: 0.0376
area with substrate ENLYTQS: 0.0518
area with substrate ENLYWQS: 0.0506
area with substrate ENLYYQS: 0.0387

MGESLFKGPRDYNPISSSICHLTNESDGHTTSLYGIGFGPFIITNKHLFRRNNGTLVVQSLHGVFKVKDTTTLQQHLVDGRDMIIIRMPIDFPPFPQKLKFREPQREERICLVTTNFQTKSMSSMVSDTSCTFPSGDGIFWKHWIQTKDGQCGSPLVSTRDGFIVGIHSASNFTNTNNYFTSVPKNFMELLTNQEAQQWVSGWRLNADSVLWGGHKVFMVKPEEPFQPVKEATQL [K90I]
area with substrate ENLYCQS: 0.0767
area with substrate ENLYDQS: 0.0579
area with substrate ENLYEQS: 0.0614
area with substrate ENLYGQS: 0.0641
area with substrate ENLYHQS: 0.0944
area with substrate ENLYIQS: 0.126
area with substrate ENLYKQS: 0.0588
area with substrate ENLYNQS: 0.0647
area with substrate ENLYPQS: 0.0741
area with substrate ENLYQQS: 0.067
area with substrate ENLYTQS: 0.0794
area with substrate ENLYVQS: 0.085
area with substrate ENLYWQS: 0.078
area with substrate ENLYYQS: 0.065

MGESLFKGPRDYNPISSSICHLTNESDGHTTSLYGIGFGPFIITNKHLFRRNNGTLVVQSLHGVFKVKDTTTLQQHLVDGRDMIIIRMPKDFPDFPQKLKFREPQREERICLVTTNFQTKSMSSMVSDTSCTFPSGDGIFWKHWIQTKDGQCGSPLVSTRDGFIVGIHSASNFTNTNNYFTSVPKNFMELLTNQEAQQWVSGWRLNADSVLWGGHKVFMVKPEEPFQPVKEATQL [P94D]
area with substrate ENLYCQS: 0.091
area with substrate ENLYDQS: 0.0563
area with substrate ENLYGQS: 0.106
area with substrate ENLYHQS: 0.0702
area with substrate ENLYIQS: 0.116
area with substrate ENLYKQS: 0.0413
area with substrate ENLYLQS: 0.0858
area with substrate ENLYMQS: 0.0887
area with substrate ENLYQQS: 0.0643
area with substrate ENLYRQS: 0.0896
area with substrate ENLYSQS: 0.112
area with substrate ENLYWQS: 0.115
area with substrate ENLYYQS: 0.0939

MGESLFKGPRDYNPISSSICHLTNESDGHTTSLYGIGFGPFIITNKHLFRRNNGTLVVQSLHGVFKVKDTTTLQQHLVDGRDMIIIRMPKDFPQFPQKLKFREPQREERICLVTTNFQTKSMSSMVSDTSCTFPSGDGIFWKHWIQTKDGQCGSPLVSTRDGFIVGIHSASNFTNTNNYFTSVPKNFMELLTNQEAQQWVSGWRLNADSVLWGGHKVFMVKPEEPFQPVKEATQL [P94Q]
area with substrate ENLYCQS: 0.0633
area with substrate ENLYDQS: 0.0604
area with substrate ENLYEQS: 0.0646
area with substrate ENLYGQS: 0.062
area with substrate ENLYHQS: 0.0633
area with substrate ENLYIQS: 0.104
area with substrate ENLYKQS: 0.0604
area with substrate ENLYMQS: 0.0922
area with substrate ENLYNQS: 0.0591
area with substrate ENLYPQS: 0.0766
area with substrate ENLYQQS: 0.0659
area with substrate ENLYRQS: 0.0645
area with substrate ENLYSQS: 0.0788
area with substrate ENLYTQS: 0.0677
area with substrate ENLYVQS: 0.1
area with substrate ENLYWQS: 0.0782
